Reference: PubChem BioAssay AID624296 (National Center for Advancing Translational Sciences (NCATS), 2012)
Screen size: about 350,000 compounds; about 9,900 (2.8%) were called active. Inconclusive means that the source gave no clear call. Such entries were picked first, then a sample of the others. Calls come from the whole dose curve; as a rule, active = well fitted activation curve with a large enough effect; inconclusive = small, poorly fitted or top-dose-only effect; inactive = no such curve, though single readings can be large or run the other way. No potency is given beside an inconclusive call; the fits are too rough.

Experiment: A quantitative high throughput screen for small molecules that induce DNA re-replication in MCF 10a normal breast cells. Note: nearly all actives have a fitted effect of over 50% in size.
Conditions: MCF 10A DNA re-replication, Hoechst nuclear intensity, 48 h; series mostly up to 46.1 µM
Potency is the fitted concentration of half-maximal effect; tags give direction and shape of the fitted curve.

SMILES	Potency
COc1ccc(-c2c(-c3ccc4c(c3)OCO4)c3ccccc3n2C)cc1	inconclusive [activator, full curve, poor fit]
c1ccc(CSc2ccc(-c3cccnc3)nn2)cc1	inconclusive [activator, single point]
CN(C)c1ccc(/C=N/NC(=O)c2cc(-c3ccc4c(c3)OCO4)n[nH]2)cc1	active: 5.8 µM
COc1ccc(C(=O)CCC(=O)Nc2cccnc2)cc1OC	inactive
O=C(Nc1ccccc1N1CCCCC1)C1CCN(S(=O)(=O)c2ccccc2C(F)(F)F)CC1	inconclusive [activator, full curve, poor fit]
COc1cc2cc(C)c(SCC(=O)N3CCN(C(=O)c4ccco4)CC3)nc2cc1OC	inconclusive [activator, single point]
Cc1ccc(-c2cc(C(F)F)n3ncc(C(=O)Nc4c(C)nn(Cc5c(Cl)cccc5Cl)c4C)c3n2)cc1	inconclusive [activator, full curve]
O=C(N[C@@H]1CCC(=O)N(CC[C@H](Sc2ccccc2)c2ccccc2)CC1)OCc1ccccc1	inconclusive [activator, single point]
Oc1ccc(CNc2ccccc2O)cc1	inconclusive [activator, partial curve, poor fit]
CCOc1ccc(CN(CC)C(=O)Cc2c[nH]c3ccccc23)cc1OC	inactive
COc1ccc(N2CCN(C(CNC(=O)C(=O)NCCc3c[nH]c4ccccc34)c3ccco3)CC2)cc1 (stereo not drawn)	inconclusive [activator, partial curve, poor fit]
O=C(Nc1nnc(C2=COCCO2)o1)c1ccc(S(=O)(=O)N2CCCCC2)cc1	inconclusive [activator, single point]
COc1cccc(/C=N/NC(=O)c2nnn(-c3nonc3N)c2C(C)C)c1	inconclusive [activator, partial curve]
Cc1nn(CC(=O)Nc2ccc(N3CCOCC3)cc2)c(C)c1Cl	inactive
COc1ccc(CN2C(=O)c3cccnc3C2=O)cc1S(=O)(=O)N1CC(C)CC(C)C1 (stereo not drawn)	inactive
O=S(=O)(NC1CCCCC1)c1ccc(Cl)s1	active: 20.6 µM
COc1ccc(NS(=O)(=O)c2ccc(C)c(C(=O)N3CC(C)OC(C)C3)c2)cc1 (stereo not drawn)	inconclusive [activator, partial curve, poor fit]
CCC1(C(=O)c2ccc(Cl)cc2)C2c3ccccc3OC(=O)C21C(=O)Nc1ccccc1 (stereo not drawn)	inconclusive [activator, single point]
